Measurements published in patent US20080044419A1, “Treatment of T Cell Mediated Diseases by Inhibition of Fgfr3” (Fibron Ltd., priority 2003, published 2008).

Target: FGFR3 (Homo sapiens, UniProt P22607)
Assay: FDCP-FGFR3 proliferation assay performed with FGF9
Type: cell-based
Details: dimeric dHLX format

FGFR3, sequence (P22607 23-806): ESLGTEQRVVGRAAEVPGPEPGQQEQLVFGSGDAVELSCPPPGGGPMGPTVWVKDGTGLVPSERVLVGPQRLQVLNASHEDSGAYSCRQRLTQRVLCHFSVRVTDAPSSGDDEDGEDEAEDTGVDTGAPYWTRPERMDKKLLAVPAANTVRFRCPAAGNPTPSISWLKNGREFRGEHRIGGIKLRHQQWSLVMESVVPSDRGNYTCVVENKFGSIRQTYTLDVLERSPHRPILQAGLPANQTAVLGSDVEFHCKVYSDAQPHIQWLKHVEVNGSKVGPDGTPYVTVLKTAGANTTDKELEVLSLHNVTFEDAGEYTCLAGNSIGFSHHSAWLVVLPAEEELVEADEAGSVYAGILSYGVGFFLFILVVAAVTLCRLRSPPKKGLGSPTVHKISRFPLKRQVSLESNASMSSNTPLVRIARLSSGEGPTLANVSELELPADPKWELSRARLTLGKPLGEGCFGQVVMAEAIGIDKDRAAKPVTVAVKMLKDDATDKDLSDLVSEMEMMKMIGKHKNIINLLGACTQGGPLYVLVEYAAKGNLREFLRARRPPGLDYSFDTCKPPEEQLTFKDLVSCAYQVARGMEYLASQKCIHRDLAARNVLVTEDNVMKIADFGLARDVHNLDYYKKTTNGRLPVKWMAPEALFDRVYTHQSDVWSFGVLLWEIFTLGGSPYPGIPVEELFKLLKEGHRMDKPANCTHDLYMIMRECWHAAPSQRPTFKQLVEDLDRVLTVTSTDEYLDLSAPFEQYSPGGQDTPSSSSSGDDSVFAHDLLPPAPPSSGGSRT

IC50: 0.07 µM
B1: PRO-024: HuCAL clone anti-FGFR3 antibody; VH-CDR3 SEQ ID NO:5, VL-CDR3 SEQ ID NO:14 (antibody, V domains shown)
VH: QVQLVQSGAEVKKPGSSVKVSCKASGGTFSSYAISWVRQAPGQGLEWMGGIIPIFGTANYAQKFQGRVTITADESTSTAYMELSSLRSEDTAVYYCARVNHWTYTFDYWGQGTLVTVSS
VL: DIVLTQSPATLSLSPGERATLSCRASQSVSSSYLAWYQQKPGQAPRLLIYGASSRATGVPARFSGSGSGTDFTLTISSLEPEDFATYYCQQMSNYPDTFGQGTKVEIKRT
